Results on 23 variants are retold here after the supplement of paper PMC7125110.

B1: glmS ribozyme (parent)
chain: AUAAAAGCGCCAGAACUACAGAAAUGUAGUUGACGAGGAGGAGGUUUAUCGAAUUUUCGGCGGAUGCCUCCAAA

Holding throughout (settings): with glucosamine-6-phosphate
In data set [1] the parent is B1. The experiment in a line: self-cleavage kobs at 40 uM GlcN6P; higher = faster cleavage; RNA array. In short, it runs like this: (§1)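 kcat and KM were obtained from weighted Michaelis–Menten fits across concentrations of kobs values. Those came from one- or two-exponential decay fits to per-tile medians normalised to baseline and to non-cleaving reference variants. The variants were barcoded ribozymes transcribed in situ by E. coli RNA polymerase on sequenced MiSeq chips and tracked through a hybridised Cy3 probe at 37 °C, with 40 μM to 10 mM glucosamine-6-phosphate in HEPES/KCl/Mg(OAc)2 buffer flowed in.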

Variants of B1 are the subject of data set [2]. The data set can be described thus: self-cleavage kobs at 640 uM GlcN6P; higher = faster cleavage; RNA array. In a few lines: as §1
In data set [3] the parent is B1. The experiment in a line: self-cleavage kobs at 160 uM GlcN6P; higher = faster cleavage; RNA array. In short, it runs like this:
as §1

In data set [4] the parent is B1. The data set can be described thus: self-cleavage kobs at 2500 uM GlcN6P; higher = faster cleavage; RNA array. In a few lines: as §1
In data set [5] the parent is B1. The data set can be described thus: self-cleavage kobs at 10000 uM GlcN6P; higher = faster cleavage; RNA array. In short, it runs like this:
as §1

± gives the standard error. This sample is rich in variants without activity.

Take U31G G60U: in the data set with glucosamine-6-phosphate [1], the “self-cleavage kobs at 40 uM GlcN6P” value is less than 1e-05 s⁻¹. Further, in the data set with glucosamine-6-phosphate [2], the “self-cleavage kobs at 640 uM GlcN6P” value was less than 1e-05 s⁻¹. In addition, the “self-cleavage kobs at 160 uM GlcN6P” value with glucosamine-6-phosphate [3] was less than 1e-05 s⁻¹. Also, the “self-cleavage kobs at 2500 uM GlcN6P” value with glucosamine-6-phosphate [4] is less than 1e-05 s⁻¹. For the same variant, the “self-cleavage kobs at 10000 uM GlcN6P” value with glucosamine-6-phosphate [5] is less than 1e-05 s⁻¹.

Regarding C34A U46A, the “self-cleavage kobs at 40 uM GlcN6P” value with glucosamine-6-phosphate [1] is less than 1e-05 s⁻¹. The “self-cleavage kobs at 640 uM GlcN6P” value with glucosamine-6-phosphate [2] is less than 1e-05 s⁻¹. For the same variant, the “self-cleavage kobs at 2500 uM GlcN6P” value in the data set with glucosamine-6-phosphate [4] is less than 1e-05 s⁻¹. Also, in the data set with glucosamine-6-phosphate [5], the “self-cleavage kobs at 10000 uM GlcN6P” value is less than 1e-05 s⁻¹.

In the case of G32C A53U, the “self-cleavage kobs at 40 uM GlcN6P” value with glucosamine-6-phosphate [1] is less than 1e-05 s⁻¹. Also, the “self-cleavage kobs at 160 uM GlcN6P” value with glucosamine-6-phosphate [3] is less than 1e-05 s⁻¹. In the data set with glucosamine-6-phosphate [4], the “self-cleavage kobs at 2500 uM GlcN6P” value came to 2.59e-05 ± 6.8e-06 s⁻¹. In the data set with glucosamine-6-phosphate [5], the “self-cleavage kobs at 10000 uM GlcN6P” value turned out to be 5.79e-05 ± 5e-06 s⁻¹.

Consider G32C G38U, for which the “self-cleavage kobs at 40 uM GlcN6P” value with glucosamine-6-phosphate [1] is less than 1e-05 s⁻¹. Further, in the data set with glucosamine-6-phosphate [2], the “self-cleavage kobs at 640 uM GlcN6P” value was less than 1e-05 s⁻¹. The “self-cleavage kobs at 160 uM GlcN6P” value in the data set with glucosamine-6-phosphate [3] was less than 1e-05 s⁻¹. Also, the “self-cleavage kobs at 10000 uM GlcN6P” value with glucosamine-6-phosphate [5] was less than 1e-05 s⁻¹.

Consider G32A G43A G44C U54A, for which, in the data set with glucosamine-6-phosphate [1], the “self-cleavage kobs at 40 uM GlcN6P” value was less than 1e-05 s⁻¹.

Regarding A33U G41U G44A, in the data set with glucosamine-6-phosphate [1], the “self-cleavage kobs at 40 uM GlcN6P” value is less than 1e-05 s⁻¹.

As for A33C G40U, the “self-cleavage kobs at 40 uM GlcN6P” value with glucosamine-6-phosphate [1] was less than 1e-05 s⁻¹. The “self-cleavage kobs at 640 uM GlcN6P” value with glucosamine-6-phosphate [2] was less than 1e-05 s⁻¹. In addition, the “self-cleavage kobs at 160 uM GlcN6P” value with glucosamine-6-phosphate [3] was less than 1e-05 s⁻¹. Also, the “self-cleavage kobs at 2500 uM GlcN6P” value in the data set with glucosamine-6-phosphate [4] is less than 1e-05 s⁻¹.

In the case of U31C G40A U69A, the “self-cleavage kobs at 40 uM GlcN6P” value in the data set with glucosamine-6-phosphate [1] is less than 1e-05 s⁻¹.

As to G32A G59C, the “self-cleavage kobs at 40 uM GlcN6P” value in the data set with glucosamine-6-phosphate [1] is less than 1e-05 s⁻¹. Also, the “self-cleavage kobs at 640 uM GlcN6P” value with glucosamine-6-phosphate [2] is less than 1e-05 s⁻¹. The “self-cleavage kobs at 160 uM GlcN6P” value with glucosamine-6-phosphate [3] is less than 1e-05 s⁻¹. Moreover, in the data set with glucosamine-6-phosphate [4], the “self-cleavage kobs at 2500 uM GlcN6P” value was less than 1e-05 s⁻¹.

On to A33G A52C C70U, for which the “self-cleavage kobs at 40 uM GlcN6P” value in the data set with glucosamine-6-phosphate [1] is less than 1e-05 s⁻¹. The “self-cleavage kobs at 10000 uM GlcN6P” value in the data set with glucosamine-6-phosphate [5] is less than 1e-05 s⁻¹.

As to A33C C68A, in the data set with glucosamine-6-phosphate [1], the “self-cleavage kobs at 40 uM GlcN6P” value was less than 1e-05 s⁻¹.

For the variant A33C U55C U57C, the “self-cleavage kobs at 40 uM GlcN6P” value in the data set with glucosamine-6-phosphate [1] was less than 1e-05 s⁻¹. The “self-cleavage kobs at 10000 uM GlcN6P” value in the data set with glucosamine-6-phosphate [5] is less than 1e-05 s⁻¹.

Regarding U31C G51C, the “self-cleavage kobs at 40 uM GlcN6P” value in the data set with glucosamine-6-phosphate [1] is less than 1e-05 s⁻¹. Moreover, in the data set with glucosamine-6-phosphate [4], the “self-cleavage kobs at 2500 uM GlcN6P” value was less than 1e-05 s⁻¹. In addition, in the data set with glucosamine-6-phosphate [5], the “self-cleavage kobs at 10000 uM GlcN6P” value was less than 1e-05 s⁻¹.

Take U31G C50U: the “self-cleavage kobs at 40 uM GlcN6P” value in the data set with glucosamine-6-phosphate [1] was less than 1e-05 s⁻¹.

On to U31C A33G, for which the “self-cleavage kobs at 40 uM GlcN6P” value with glucosamine-6-phosphate [1] was less than 1e-05 s⁻¹. Further, the “self-cleavage kobs at 640 uM GlcN6P” value in the data set with glucosamine-6-phosphate [2] was less than 1e-05 s⁻¹. For the same variant, in the data set with glucosamine-6-phosphate [3], the “self-cleavage kobs at 160 uM GlcN6P” value was less than 1e-05 s⁻¹. Besides, the “self-cleavage kobs at 10000 uM GlcN6P” value with glucosamine-6-phosphate [5] is less than 1e-05 s⁻¹.

As to G32U U46A, the “self-cleavage kobs at 40 uM GlcN6P” value with glucosamine-6-phosphate [1] is less than 1e-05 s⁻¹.

On to U31A G37A C68U, for which, in the data set with glucosamine-6-phosphate [1], the “self-cleavage kobs at 40 uM GlcN6P” value is less than 1e-05 s⁻¹.

Regarding G32U A64U C68U, the “self-cleavage kobs at 40 uM GlcN6P” value in the data set with glucosamine-6-phosphate [1] is less than 1e-05 s⁻¹. The “self-cleavage kobs at 10000 uM GlcN6P” value in the data set with glucosamine-6-phosphate [5] is less than 1e-05 s⁻¹.

Consider A33U G51C, for which the “self-cleavage kobs at 40 uM GlcN6P” value with glucosamine-6-phosphate [1] is less than 1e-05 s⁻¹. For the same variant, in the data set with glucosamine-6-phosphate [3], the “self-cleavage kobs at 160 uM GlcN6P” value is less than 1e-05 s⁻¹. Further, the “self-cleavage kobs at 2500 uM GlcN6P” value with glucosamine-6-phosphate [4] was less than 1e-05 s⁻¹. Further, the “self-cleavage kobs at 10000 uM GlcN6P” value in the data set with glucosamine-6-phosphate [5] is less than 1e-05 s⁻¹.

For the variant A33U G51A, the “self-cleavage kobs at 40 uM GlcN6P” value in the data set with glucosamine-6-phosphate [1] was less than 1e-05 s⁻¹.

Regarding G32A C34A, in the data set with glucosamine-6-phosphate [1], the “self-cleavage kobs at 40 uM GlcN6P” value was less than 1e-05 s⁻¹. In addition, in the data set with glucosamine-6-phosphate [4], the “self-cleavage kobs at 2500 uM GlcN6P” value was less than 1e-05 s⁻¹. In the data set with glucosamine-6-phosphate [5], the “self-cleavage kobs at 10000 uM GlcN6P” value is less than 1e-05 s⁻¹.

Consider C34A C61U, for which the “self-cleavage kobs at 40 uM GlcN6P” value in the data set with glucosamine-6-phosphate [1] is less than 1e-05 s⁻¹. Also, the “self-cleavage kobs at 640 uM GlcN6P” value with glucosamine-6-phosphate [2] is less than 1e-05 s⁻¹. Also, the “self-cleavage kobs at 160 uM GlcN6P” value with glucosamine-6-phosphate [3] is less than 1e-05 s⁻¹. Also, in the data set with glucosamine-6-phosphate [4], the “self-cleavage kobs at 2500 uM GlcN6P” value was less than 1e-05 s⁻¹. Further, in the data set with glucosamine-6-phosphate [5], the “self-cleavage kobs at 10000 uM GlcN6P” value was less than 1e-05 s⁻¹.

With C34A U49A, the “self-cleavage kobs at 40 uM GlcN6P” value with glucosamine-6-phosphate [1] is less than 1e-05 s⁻¹. For the same variant, the “self-cleavage kobs at 640 uM GlcN6P” value in the data set with glucosamine-6-phosphate [2] was less than 1e-05 s⁻¹. The “self-cleavage kobs at 160 uM GlcN6P” value with glucosamine-6-phosphate [3] is less than 1e-05 s⁻¹. The “self-cleavage kobs at 10000 uM GlcN6P” value with glucosamine-6-phosphate [5] is less than 1e-05 s⁻¹.
